Assay results as given in publication PMC4336329 (PLoS ONE, 2015).
Screen size: about 310,000 compounds; about 14,000 (4.5%) showed an effect of 50% or more. Effects have a minus sign here. This is one part of the list.

Molecular target: human ether-à-go-go-related gene (hERG) potassium channel (human, UniProt Q12809)
Experiment: primary screen, population patch clamp on CHO cells stably expressing hERG
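Further: peak tail current of the secondary pulse compared with the same well before compound.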

Chain of human ether-à-go-go-related gene (hERG) potassium channel (Q12809 whole entry, looked up): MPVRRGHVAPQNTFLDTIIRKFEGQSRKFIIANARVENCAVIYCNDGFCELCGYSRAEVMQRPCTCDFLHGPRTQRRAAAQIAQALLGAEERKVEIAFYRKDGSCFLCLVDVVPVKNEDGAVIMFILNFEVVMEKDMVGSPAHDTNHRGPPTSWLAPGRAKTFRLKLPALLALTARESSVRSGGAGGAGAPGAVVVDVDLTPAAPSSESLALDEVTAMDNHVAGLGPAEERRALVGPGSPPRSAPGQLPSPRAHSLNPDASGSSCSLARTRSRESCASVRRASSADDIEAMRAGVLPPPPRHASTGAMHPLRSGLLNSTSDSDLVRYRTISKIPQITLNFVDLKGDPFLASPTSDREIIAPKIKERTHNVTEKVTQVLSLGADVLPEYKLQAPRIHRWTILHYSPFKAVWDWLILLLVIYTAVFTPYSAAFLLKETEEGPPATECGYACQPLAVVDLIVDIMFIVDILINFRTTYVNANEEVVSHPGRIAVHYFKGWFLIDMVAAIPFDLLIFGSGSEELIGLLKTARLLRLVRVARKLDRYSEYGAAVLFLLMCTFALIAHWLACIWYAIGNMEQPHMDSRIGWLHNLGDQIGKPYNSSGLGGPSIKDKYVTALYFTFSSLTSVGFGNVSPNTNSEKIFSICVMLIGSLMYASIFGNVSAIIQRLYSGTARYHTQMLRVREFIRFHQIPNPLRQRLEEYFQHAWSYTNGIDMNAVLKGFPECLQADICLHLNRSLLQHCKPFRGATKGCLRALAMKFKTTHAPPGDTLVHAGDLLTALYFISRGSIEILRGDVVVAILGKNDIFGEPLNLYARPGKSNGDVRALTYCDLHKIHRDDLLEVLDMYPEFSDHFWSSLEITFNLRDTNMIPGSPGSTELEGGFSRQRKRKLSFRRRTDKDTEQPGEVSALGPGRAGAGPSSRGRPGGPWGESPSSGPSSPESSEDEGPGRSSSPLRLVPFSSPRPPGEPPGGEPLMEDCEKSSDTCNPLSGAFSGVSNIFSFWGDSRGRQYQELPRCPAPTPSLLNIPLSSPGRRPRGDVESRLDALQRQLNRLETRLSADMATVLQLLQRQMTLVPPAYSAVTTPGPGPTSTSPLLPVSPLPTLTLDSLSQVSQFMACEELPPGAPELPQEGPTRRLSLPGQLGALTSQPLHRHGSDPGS

Row | SMILES | hERG current change (%, negative = inhibition) at 10uM
1 | CC(C)CN(C1CCS(=O)(=O)C1)S(=O)(=O)c1ccc(C(C)C)cc1 (stereo not drawn) | -6.74%
2 | O=C(c1cc(-c2ccc(Br)cc2)on1)N1CCCCCC1 | 8.66%
3 | Cc1nc(-c2cccc(NC(=O)Cc3ccccc3)c2)cs1 | -9.89%
4 | S=C(NCCc1ccccc1)Nc1nccs1 | 6.05%
5 | Nc1ccc(CC2SC(=O)NC2=O)cc1 (stereo not drawn) | 13.2%
6 | COC(=O)C1=C(c2cccc(C#N)c2)C[C@@H]2CC[C@H]1N2C(=O)NCc1ccc(F)cc1 | -26.6%
7 | CC[N+](CC)(CC)CCCCOc1ccc2c(c1)C(=O)c1cc(OCCCC[N+](CC)(CC)CC)ccc1-2.[I-] | 23%
8 | COc1ccc(OC)c(NC(=O)c2ccc(NC3=NC4CS(=O)(=O)CC4S3)cc2)c1 (stereo not drawn) | -5.04%
9 | CCOC(=O)N1CCC(Nc2cc(C)nc3c(-c4ccccc4OC)c(C)nn23)CC1 | -19.2%
10 | COCCNC(=S)N(CCCN(C)C)Cc1cc2cc3c(cc2[nH]c1=O)OCCO3 | 24.9%
11 | Cl.O=[N+]([O-])c1cccnc1N1CCN(Cc2ccc3c(c2)OCO3)CC1 | -33.2%
12 | Cc1ccc(NC(=O)c2cc(NC(=O)c3ccco3)ccc2N2CCOCC2)cc1 | 7.7%
13 | CC(=O)NCCOC(=O)Nc1sc(=S)n(C)c1C | 5.72%
14 | COc1ccc(CNC(=O)C(=O)NCc2ccncc2)cc1 | 10.9%
15 | CCCc1[nH]nc2c1C(C1CCCCC1)C(C#N)=C(N)O2 (stereo not drawn) | 3.03%
16 | O=C(CN1C(=O)NC2(CCCCCC2)C1=O)Nc1ccc(Br)cc1Br | -21%
17 | O=c1c2ccccc2nc(SCc2cccc(F)c2)n1Cc1ccco1 | 2.21%
18 | OCC[C@H]1C[C@H](O)[C@@H](O)[C@]2(OCCc3ccccc32)O1 | 2.59%
19 | O=c1c(Cc2ccc(Cl)cc2)c(O)ccn1Cc1ccccc1 | 1.16%
20 | CCC(O)C1CCN(Cc2cn(Cc3ccccc3)nc2-c2cc3ccccc3o2)CC1 (stereo not drawn) | -65.1%
21 | CC(C)Cc1ccc(CN2CCCC(NC(=O)c3cnc4ccccn4c3=O)C2)cc1 (stereo not drawn) | -71.8%
22 | O=C(NC(CC(=O)N1CCN(c2ccc([N+](=O)[O-])cc2)CC1)c1ccccc1)c1ccccc1Cl (stereo not drawn) | -85.3%

Row | SMILES | hERG current change (%, negative = inhibition) at 10uM
23 | O=C(O)C1=C[C@@H](c2csc3ccccc23)C[C@@H](OCc2ccc(CO)cc2)O1 | -1.15%
24 | O=C(NNC(=O)C1CCN(c2ncccn2)CC1)c1ccc(F)cc1 | 14.7%
25 | COc1ccc(C2C(C(=O)NCc3cccnc3)c3ccccc3C(=O)N2C)cc1OC (stereo not drawn) | 9.28%
26 | O=C(NC1CCCCC1)C(c1ccc(F)cc1)N(CCCN1CCOCC1)C(=O)c1ccc(CN2CCOCC2)o1 (stereo not drawn) | 10.6%
27 | O=C(O)c1ccc(S(=O)(=O)NCc2cccnc2)cc1 | 14%
28 | c1ccc(-c2cc3c(N4CCCCC4)ncnc3s2)cc1 | 15.9%
29 | CCC(CO)Nc1nc(CN2CCCCC2)nc2scc(-c3ccccc3)c12 (stereo not drawn) | -68.2%
30 | COc1ccccc1CC(=O)NCCc1ccccc1 | 12.1%
31 | COc1ccc(CSc2nnc(C)n2N)cc1 | 1.59%
32 | CCn1ccnc1CN1CCCC(C(=O)c2cc(F)ccc2OC)C1 (stereo not drawn) | -33%
33 | O=c1[nH]c(=O)n(Cc2ccc(F)cc2)c(O)c1C=NCCN1CCCCC1 | -17.2%
34 | Cc1cc(NC(=O)CSc2nc(=O)n(CCN(C)C)c3c2CCCC3)no1 | -6.91%
35 | O=[N+]([O-])c1ccc(S(=O)(=O)N(CC(O)CN2CCCCC2)c2ccccc2)cc1 (stereo not drawn) | -80.9%
36 | Cc1cc(C)cc(C(=O)Nc2cccnc2Cl)c1 | -5.12%
37 | COc1ccc(NC(=O)CC(NCc2ccccn2)C(=O)O)cc1 (stereo not drawn) | 15.5%
38 | Cc1cc(C(=O)NC2CC(C)(C)Cc3c2cnn3-c2cccc(F)c2)n(C)n1 (stereo not drawn) | -32.6%
39 | CCc1ccc(N2C(=O)C3CCCN3C2=S)cc1 (stereo not drawn) | 0.601%
40 | CC(C)c1ccc(NC(=S)N2CCCC2)cc1 | -0.836%
41 | CCC(=O)c1ccc(OCC(=O)OCC(=O)NCC2CCCO2)cc1 (stereo not drawn) | 16.4%
42 | CCc1cccc(NC(=S)N(CCN(C)C)C(C)c2ccncc2)c1 (stereo not drawn) | -44%
43 | Cn1c(Cc2c[nH]c3ccccc23)n[nH]c1=S | 9.86%
44 | O=C(COC(=O)CCNS(=O)(=O)c1ccc(Cl)cc1)NCc1ccco1 | -19.1%

Row | SMILES | hERG current change (%, negative = inhibition) at 10uM
45 | CC(C)NC1=C(Cl)C(=O)c2ccccc2C1=O | 4.34%
46 | CC(=O)Nc1cccc(NC(=O)C2CCCN2C(=O)Nc2cccc(C)c2)c1 (stereo not drawn) | 7.98%
47 | CCS(=O)(=O)N1CCCC(C(=O)NCc2ccc3c(c2)OCO3)C1 (stereo not drawn) | -6.28%
48 | CN(C)c1nc(N)nc(N(c2ccccc2)c2ccccc2)n1 | -8.13%
49 | O=C(Cc1ccsc1)NCC(=O)Nc1ccc(F)c(F)c1 | -4.33%
50 | Cc1ccc(C2Nc3ccc4ccccc4c3C3=C2C(=O)CC(C)(C)C3)o1 (stereo not drawn) | 2.46%
51 | Cc1cc2cc(CN(Cc3ccco3)C(=O)C3CCCCC3)c(=O)[nH]c2cc1C | -18.1%
52 | CCOc1ccc(Cl)cc1S(=O)(=O)N1CCC(C(=O)N2CCCC2)CC1 | -2.33%
53 | CNC(=O)c1ccsc1NC(=O)CCS(=O)(=O)c1ccc(Cl)cc1 | -18.1%
54 | CN(C)/C=C1/Sc2ccccc2C1=O | 2.59%
55 | Cc1ccc2sc(N(CCCN(C)C)C(=O)CCS(=O)(=O)c3ccccc3)nc2c1C | -6.04%
56 | CCc1ccc(NC(=O)C(=O)NCCOc2ccccc2Cl)cc1 | 8.26%
57 | CC(=O)c1ccc(N2CCN(C(=O)c3cccs3)CC2)c(F)c1 | -28.3%
58 | O=C(CCn1c(=O)c2sccc2n(CC(=O)NCc2ccco2)c1=O)NCc1ccccc1 | 9.62%
59 | N/C(=N\NC(=O)Nc1ccccc1)c1ccccn1 | -4.74%
60 | O=C(Nc1ccc(Cl)c(C(F)(F)F)c1)[C@@H]1CC=C[C@@H]2CCN(Cc3ccc(Cl)c(Cl)c3)C(=O)[C@@H]21 | 23.4%
61 | Cc1ccc(-n2c(SCC(=O)N/N=C/C=C/c3ccccc3[N+](=O)[O-])nc3ccccc3c2=O)cc1 | 4.57%
62 | Cc1ccc2c(c1Br)/C(=N/N1C(=O)c3ccccc3C1=O)C(=O)N2 | 19.8%
63 | Cc1ccc(C(=O)C(C)OC(=O)c2nc(Cl)ccc2Cl)cc1 (stereo not drawn) | 8.71%
64 | O=C(O)c1cccc(NC(=O)c2cc(-c3cccc(Cl)c3)nc3ccccc23)c1 | 27.3%
65 | COc1ccccc1N=Nc1c(C)n[nH]c1C | 15.7%
66 | Cc1ccc(N(C)C(=O)c2ccc3c(Cl)c4c(nc3c2)CCC4)cc1C | 1.04%

Row | SMILES | hERG current change (%, negative = inhibition) at 10uM
67 | COC(=O)CN1C(=O)C(O)(CC(=O)c2ccc(Br)cc2)c2ccccc21 (stereo not drawn) | -8.19%
68 | COC(=O)C1=C(N)OC2=C(C(=O)CC(C)(C)C2)C1c1cccnc1 (stereo not drawn) | -1.7%
69 | Cc1cc(C)n2c(nc3ccccc32)c1C(=O)NCc1ccccc1 | 15.9%
70 | COCCn1c(SCc2ccc(F)cc2)nc2c1c(=O)[nH]c(=O)n2C | -6.83%
71 | CCCS(=O)(=O)N1CCCC(C(=O)NCCCN(C)Cc2ccccc2)C1 (stereo not drawn) | 8.12%
72 | COC(=O)c1ccc(NC(=O)c2cnc3scc(C)n3c2=O)cc1 | -14.8%
73 | CCOc1ccc(CC(=O)NNC(=S)Nc2ccccc2)cc1Br | 7.82%
74 | O=C(NCC(c1ccco1)N1CCN(c2ccc(F)cc2)CC1)c1ccc2c(c1)OCO2 (stereo not drawn) | 4.55%
75 | O=c1[nH]c2ccccc2n1CCCOc1ccccc1 | 4.34%
76 | CCS(=O)(=O)Nc1cccc(C2=NN(S(=O)(=O)c3ccc(C)cc3)C(c3ccco3)C2)c1 (stereo not drawn) | 12.9%
77 | CC1=C(C(=O)OC2CCCCC2)C(c2ccc(F)cc2)NC(=O)N1 (stereo not drawn) | -12%
78 | C=CCN(C(=O)CCC(=O)Nc1cc(C)on1)C(C(=O)NC1CCCC1)c1ccc(OC)c(OC)c1 (stereo not drawn) | 15.4%
79 | O=C(CN1CCN(c2ccccc2F)CC1)N1CCc2ccccc21 | 2.97%
80 | COc1ccc(-c2c(C#N)sc(C(N)=O)c2-c2ccc(OC)cc2)cc1 | 4.84%
81 | CCOc1ccc(NC(=O)CN(C)C(=O)CCNC(=O)c2ccccc2Cl)cc1OCC | 0.127%
82 | Cc1cc(N2CCOCC2)nc2ccc(NC(=S)NCCN(C)C)cc12 | 13.7%
83 | COc1ccc(-c2nnc(SC(C)C(=O)Nc3c(C)n(C)n(-c4ccccc4)c3=O)o2)cc1 (stereo not drawn) | 14.6%
84 | Cc1nc(-c2ccccc2)c(Cc2ccccc2O)c(=O)[nH]1 | 17.2%
85 | COC(=O)N/N=C/c1cn(Cc2ccc(F)cc2)c2ccccc12 | 5.67%
86 | CCOC(=O)c1cc2sccc2n1Cc1ccccc1 | 1.89%
87 | COC(=O)C(Cc1ccccc1)P(=O)(c1ccccc1)c1ccccc1 (stereo not drawn) | -6.24%
